Measured values taken from the supplement of paper PMC4967469.

Tests used:
Experiment in all cases: Viability of human cancer cell lines after 72 h of drug (GDSC screen)
[1] = compound: CC(=O)c1c(C)c2cnc(Nc3ccc(N4CCNCC4)cn3)nc2n(C2CCCC2)c1=O [PD-0332991]
Method: (§1)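 Human cancer cell lines in 384-well plates, medium with 10% serum, drug for 72 h over a 256-fold dose range (nine 2-fold or five 4-fold steps up to the top dose). Adherent lines were fixed and stained with the nucleic acid dye Syto60, suspension lines read with resazurin; signal relative to control wells, capped at 0 and 100%. One two-parameter sigmoid per drug and line, fitted in a mixed model over all curves with the slope shared within a line.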

[2] = compound: COc1cc2c(Nc3ccc(NC(=O)c4ccccc4)cc3)ncnc2cc1OCCCN1CCOCC1 [ZM-447439]; conditions: top dose inferred
Method: as §1

[3] = compound: Cn1cnc2c(F)c(Nc3ccc(Br)cc3Cl)c(C(=O)NOCCO)cc21 [AZD6244]; conditions: screen: GDSC drug entry 1062
Method: as §1

8-MG-BA (glioma, adherent, top dose 4 µM)
AUC [1]: 0.982 | IC50 [1]: > 4 µM | AUC [2]: 0.89 | IC50 [2]: > 4 µM | AUC [3]: 0.969 | IC50 [3]: > 4 µM

42-MG-BA (glioma, adherent, top dose 4 µM)
AUC [1]: 0.969 | IC50 [1]: > 4 µM | AUC [2]: 0.866 | IC50 [2]: 3.97 µM | AUC [3]: 0.911 | IC50 [3]: > 4 µM

201T (lung adenocarcinoma, adherent, top dose 4 µM)
AUC [1]: 0.812 | IC50 [1]: 2.84 µM | AUC [2]: 0.938 | IC50 [2]: > 4 µM | AUC [3]: 0.974 | IC50 [3]: > 4 µM

639-V (bladder, adherent, top dose 4 µM)
AUC [1]: 0.943 | IC50 [1]: > 4 µM | AUC [2]: 0.972 | IC50 [2]: > 4 µM | AUC [3]: 0.969 | IC50 [3]: > 4 µM

647-V (bladder, adherent, top dose 4 µM)
AUC [1]: 0.987 | IC50 [1]: > 4 µM | AUC [2]: 0.978 | IC50 [2]: > 4 µM | AUC [3]: 0.987 | IC50 [3]: > 4 µM

697 (lymphoblastic leukaemia, suspension, top dose 4 µM)
AUC [1]: 0.259 | IC50 [1]: 0.0608 µM | AUC [2]: 0.662 | IC50 [2]: 0.635 µM | AUC [3]: 0.99 | IC50 [3]: > 4 µM

786-0 (kidney, adherent, top dose 4 µM)
AUC [1]: 0.76 | IC50 [1]: 1.31 µM | AUC [2]: 0.933 | IC50 [2]: > 4 µM | AUC [3]: 0.907 | IC50 [3]: > 4 µM

5637 (bladder, adherent, top dose 4 µM)
AUC [1]: 0.988 | IC50 [1]: > 4 µM | AUC [2]: 0.802 | IC50 [2]: 1.75 µM | AUC [3]: 0.982 | IC50 [3]: > 4 µM

8305C (thyroid, adherent, top dose 4 µM)
AUC [1]: 0.826 | IC50 [1]: 3.48 µM | AUC [2]: 0.946 | IC50 [2]: > 4 µM | AUC [3]: 0.794 | IC50 [3]: 2.52 µM

8505C (thyroid, adherent, top dose 4 µM)
AUC [1]: 0.855 | IC50 [1]: 3.49 µM | AUC [2]: 0.883 | IC50 [2]: > 4 µM | AUC [3]: 0.974 | IC50 [3]: > 4 µM

23132-87 (stomach, adherent, top dose 4 µM)
AUC [1]: 0.939 | IC50 [1]: > 4 µM | AUC [2]: 0.972 | IC50 [2]: > 4 µM | AUC [3]: 0.986 | IC50 [3]: > 4 µM

A3-KAW (B-cell lymphoma, suspension, top dose 4 µM)
AUC [1]: 0.992 | IC50 [1]: > 4 µM | AUC [2]: 0.993 | IC50 [2]: > 4 µM | AUC [3]: 0.976 | IC50 [3]: > 4 µM

A4-Fuk (B-cell lymphoma, suspension, top dose 4 µM)
AUC [1]: 0.855 | IC50 [1]: 3.42 µM | AUC [2]: 0.829 | IC50 [2]: 2.64 µM | AUC [3]: 0.707 | IC50 [3]: 0.988 µM

A101D (melanoma, adherent, top dose 4 µM)
AUC [1]: 0.769 | IC50 [1]: 1.85 µM | AUC [2]: 0.869 | IC50 [2]: > 4 µM | AUC [3]: 0.945 | IC50 [3]: > 4 µM

A253 (head and neck, adherent, top dose 4 µM)
AUC [1]: 0.954 | IC50 [1]: > 4 µM | AUC [2]: 0.968 | IC50 [2]: > 4 µM | AUC [3]: 0.989 | IC50 [3]: > 4 µM

A375 (melanoma, adherent, top dose 4 µM)
AUC [1]: 0.666 | IC50 [1]: 0.657 µM | AUC [2]: 0.778 | IC50 [2]: 1.34 µM

A388 (skin, adherent, top dose 4 µM)
AUC [1]: 0.828 | IC50 [1]: 2.97 µM | AUC [2]: 0.917 | IC50 [2]: > 4 µM | AUC [3]: 0.974 | IC50 [3]: > 4 µM

A427 (non-small cell lung carcinoma, adherent, top dose 4 µM)
AUC [1]: 0.907 | IC50 [1]: > 4 µM | AUC [2]: 0.872 | IC50 [2]: 3.89 µM | AUC [3]: 0.88 | IC50 [3]: > 4 µM

A431 (skin, adherent, top dose 4 µM)
AUC [1]: 0.895 | IC50 [1]: > 4 µM | AUC [2]: 0.928 | IC50 [2]: > 4 µM | AUC [3]: 0.932 | IC50 [3]: > 4 µM

A498 (kidney, adherent, top dose 4 µM)
AUC [1]: 0.947 | IC50 [1]: > 4 µM | AUC [2]: 0.824 | IC50 [2]: > 4 µM | AUC [3]: 0.832 | IC50 [3]: > 4 µM

A673 (rhabdomyosarcoma, adherent, top dose 4 µM)
AUC [1]: 0.89 | IC50 [1]: 3.79 µM | AUC [2]: 0.98 | IC50 [2]: > 4 µM | AUC [3]: 0.982 | IC50 [3]: > 4 µM

A2780 (ovary, semi-adherent, top dose 4 µM)
AUC [1]: 0.957 | IC50 [1]: > 4 µM | AUC [2]: 0.982 | IC50 [2]: > 4 µM | AUC [3]: 0.985 | IC50 [3]: > 4 µM

AGS (stomach, adherent, top dose 4 µM)
AUC [1]: 0.792 | IC50 [1]: 1.61 µM | AUC [2]: 0.915 | IC50 [2]: > 4 µM | AUC [3]: 0.945 | IC50 [3]: > 4 µM

ALL-PO (lymphoblastic leukaemia, suspension, top dose 4 µM)
AUC [1]: 0.774 | IC50 [1]: 1.66 µM | AUC [2]: 0.663 | IC50 [2]: 0.733 µM | AUC [3]: 0.837 | IC50 [3]: 2.91 µM

ALL-SIL (T-cell leukaemia, suspension, top dose 4 µM)
AUC [1]: 0.88 | IC50 [1]: 3.15 µM | AUC [2]: 0.735 | IC50 [2]: 1.04 µM | AUC [3]: 0.988 | IC50 [3]: > 4 µM

AM-38 (glioma, semi-adherent, top dose 4 µM)
AUC [1]: 0.882 | IC50 [1]: > 4 µM | AUC [2]: 0.977 | IC50 [2]: > 4 µM | AUC [3]: 0.978 | IC50 [3]: > 4 µM

AMO-1 (haematopoietic neoplasm, suspension, top dose 4 µM)
AUC [1]: 0.983 | IC50 [1]: > 4 µM | AUC [2]: 0.932 | IC50 [2]: > 4 µM | AUC [3]: 0.991 | IC50 [3]: > 4 µM

ARH-77 (myeloma, suspension, top dose 4 µM)
AUC [1]: 0.978 | IC50 [1]: > 4 µM | AUC [2]: 0.985 | IC50 [2]: > 4 µM | AUC [3]: 0.97 | IC50 [3]: > 4 µM

ASH-3 (thyroid, adherent, top dose 4 µM)
AUC [1]: 0.866 | IC50 [1]: 3.58 µM | AUC [2]: 0.972 | IC50 [2]: > 4 µM | AUC [3]: 0.824 | IC50 [3]: 2.37 µM

EW-16 (Ewing sarcoma, adherent, top dose 4 µM)
AUC [1]: 0.585 | IC50 [1]: 0.431 µM | AUC [2]: 0.76 | IC50 [2]: 1.47 µM

By IC50 is meant the dose at which the fit gives 50% viability; a limit (>, <) means that the fit lies beyond the doses tested. AUC, from the same fit, is the share of area under the viability curve across the 256-fold dose range; values near 1 show little effect. For some assays here: The top dose, if marked as inferred, was calculated from the reported fits. For some assays here: Drugs with an entry number were screened twice under separate entries, and the two screens often disagree.
